Data: paper PMC12136788
Some of the results follow.

B1: 156911750_156912570_4337_CDS_ENSG00000132694_ENST00000368194|human|control|control (ssRNA)
RNA: GGGAGUUCUACAGUCCGACGAUCCCGCACGGCCUCUUCUAAGAGCUCCAUCCAUGUGUUCUUGUCUGAUGACGUCAAUGCAACCAGCUCAUAGAUCUGGGGUGGGCCCAGCUUGGAGGUGCAGAUGAUGAAGAAGGCCCGUUUCAACAGAGGAUUGAGCAUCA
B2: chr17:64801638:64801639:+_ENSG00000154229_ENST00000413366|hu_mus|hu_hu_hu_mus_False|68_88 (ssRNA)
RNA: GGGAGUUCUACAGUCCGACGAUCUAUAUAUAUAUAUACAUAUGUACACAUAUGUAGUAAAACCCUAAUCUAUCACGUAAAGUAGCCAUUCAUUUUUAAAAUUACAUCUACAUUAAAAAAUUAAUAUAUCUGAUAGAGUGCCAGCAACAGAGGAUUGAGCAUCA
B3: chr22:19452774:19452775:-_ENSG00000070010_ENST00000399523|hu_hu|hu_hu_hu_mus_False|48_58 (ssRNA)
RNA: GGGAGUUCUACAGUCCGACGAUCCUUCUCAUUGUAGUUGAUAGCAAUCACAUCUCCAGUCGUCAGACAGGCGAAGUUCCUAAGUGCGUUUUCUAAUACCGCUUUAGGGUUGGUAAUAUCCAGGAAGUCUGGGCUCUGAGGCUGCAACAGAGGAUUGAGCAUCA
B4: chr7:135612270:135612271:-_ENSG00000105887_ENST00000393085|hu_mus|hu_hu_hu_mus_False|48_88 (ssRNA)
RNA: GGGAGUUCUACAGUCCGACGAUCGUUUUUUUCUGAGAUGUUAAAUAUUCAGUGGAGGGAAAACAAAACUUAACCUUUUAUUAAUGCAUGUAGUACCAAAAGCAGACAUUUUAGCUUCAUUUAUUCAAAAAUAUUAACAUUAAGCAACAGAGGAUUGAGCAUCA
B5: chr5:132412388:132412389:+_ENSG00000170606_ENST00000304858|hu_hu|motif|central (ssRNA)
RNA: GGGAGUUCUACAGUCCGACGAUCUUUGGACUUAAUGUCUAGCUUGUAUUUCUUCCCAAAUUCUUCACAGAAGUGAUUUACGGACACUUCAUCAAAUUUUCUACCUCCCAAUGUCGUGUCAAAUGCAGUGGCCAGAACUUUCAGCAACAGAGGAUUGAGCAUCA
B6: chr19:16212804:16212805:+_ENSG00000167460_ENST00000300933|hu_mus|hu_hu_hu_mus_False|18_18 (ssRNA)
RNA: GGGAGUUCUACAGUCCGACGAUCAACAAUUCUGGAGUGAAGGAAAGAUGUAACAUGGAACAGCAUUAAAGCUCAGUCAGAAGGCACAUGGGCAACAAUGAUCACCCCAGCAUUCUCCUACGUUGACCUUAAAGACAAUCUGUUCAACAGAGGAUUGAGCAUCA
B7: chr8:38067834:38067835:+_ENSG00000156735_ENST00000287322|hu_mus|FALSE|FALSE (ssRNA)
RNA: GGGAGUUCUACAGUCCGACGAUCCUUUGUCAGCAUUUCUUCCAGAAGCCAAUACGCUUUGUCUGUCUUUUUUCCUACAAACUCUUCUACUUCUUGCUCAAGAAACUGCACCUUCUCCAGCACAUGUAUGAUCUUUUUAAUACUCAACAGAGGAUUGAGCAUCA
B8: chr2:9570881:9570882:+_ENSG00000119203_ENST00000238112|hu_mus|hu_hu_hu_mus_False|88_98 (ssRNA)
RNA: GGGAGUUCUACAGUCCGACGAUCACUUGUCUUCUGAAGAAACCAGGGCAGAGCUCCACAGUGAUCCAAAUGGAAAUGACUGAUCAACAGAAGGUCGAUCUCAGCUGGGUCGAUAAGGUCAAUGUAAGGAAGGGCAUCCAUUCCCAACAGAGGAUUGAGCAUCA
B9: chr3:10015032:10015033:+_ENSMUSG00000027533_ENSMUST00000029046|mus_mus|mus_mus_mus_hu_True|1_18 (ssRNA)
RNA: GGGAGUUCUACAGUCCGACGAUCGUUUUUACCAUCACAAGUGAUGAUACAAUCUGGCUUGGCCAUUGCGCCCAUUUUUCGCAAAGCUAUUCCCACUCCUAGCUCCUUCAUGUAUUCCUCAAAGCCGUUGCUGUCCAUCAGGCGCAACAGAGGAUUGAGCAUCA
B10: chr3:103732867:103732868:+_ENSMUSG00000044098_ENSMUST00000106806|mus_mus|motif|central (ssRNA)
RNA: GGGAGUUCUACAGUCCGACGAUCAAAAUUAAAAGCAAAGUAGUCCAAGAAGUCUGGGAGAUAAGCGGCCGCUCCAUGCACGGUUGCGGACGCAUAGUACGCAGCGUUUUUCUCAUUUUCACUGAAUGUCAAAGCAAGAAACUCCAACAGAGGAUUGAGCAUCA
B11: chr11:119660697:119660698:+_ENSMUSG00000025583_ENSMUST00000147781|mus_hu|FALSE|FALSE (ssRNA)
RNA: GGGAGUUCUACAGUCCGACGAUCGCUGACGGGAGUGCAGUUAUACGACCUCAUAAUCCUUUCCGCCAAUAAAAAAUUUCGAAACAGACUAGCCACCAGCAAGUCCUGUCUGAAGAGCUUUUGGAAGAGAUCCCGGGGGAGCACCAACAGAGGAUUGAGCAUCA
B12: chrX:98862621:98862622:+_ENSMUSG00000034160_ENSMUST00000044475|mus_mus|FALSE|FALSE (ssRNA)
RNA: GGGAGUUCUACAGUCCGACGAUCCUGCAUCUCCUUUAGAGUGUUUCCCAUAUUGGAAUAAGCAUCAGCAAAUGUAGGACUAAUUCGUAUGGCUUCUUUAUAGUGCAUCAGUGCUUCCUGCAGCUUGCCCUGCUGUUGCAGUACCAACAGAGGAUUGAGCAUCA
B13: 176539478_176539598_3164_CDS_ENSMUSG00000028354_ENSMUST00000030039|mouse|control|control (ssRNA)
RNA: GGGAGUUCUACAGUCCGACGAUCGGGAGGAGGUAUUCCCACUCCAGGAAGAGGAGGAGGAGGGGGUAUUCCCACUCCAGGAAGAGGAGGAGGAGGGGGUAUGCCCACUCCAGGAAGAGGAGGAGGAGGGGGUAUGCCCACUCCCAACAGAGGAUUGAGCAUCA
B14: chr7:54168817:54168818:-_ENSMUSG00000014402_ENSMUST00000014546|mus_mus|motif|central (ssRNA)
RNA: GGGAGUUCUACAGUCCGACGAUCGUUUGAGAUCUUUGUACAUAGCGAUGACAUUGACAGUUUGACGGACGGUUAGAUCUCGGUAUUUGUACUUGGACAUCAUCUUCUUCAGCUGACUCUCGGACACCGCCAUGGCGCGCUCCUCAACAGAGGAUUGAGCAUCA

molecular target: T1, UNK ZnF1-3 (human, UniProt Q9C0B0 31-174); test: nsRBNS (natural sequence RNA bind-n-seq); RBNS binding buffer (assumed for nsRBNS): 25 mM Tris pH 7.5, 150 mM KCl, 3 mM MgCl2, 0.01% Triton X-100, 500 ug/ml BSA, 20 U/ml SUPERase-In, 4 C; UNK is unkempt and MSI1 is Musashi-1; names of the RNAs are library labels; protein concentration not given here; high values mean tight binding
T1 sequence: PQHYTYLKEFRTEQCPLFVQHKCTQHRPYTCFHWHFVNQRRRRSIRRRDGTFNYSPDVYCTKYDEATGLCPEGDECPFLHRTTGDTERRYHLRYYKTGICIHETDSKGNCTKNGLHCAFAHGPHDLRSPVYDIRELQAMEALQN

| Binder | binding signal |
| --- | --- |
| B1 | 1.28 enrichment R |
| B2 | 1.4 enrichment R |
| B3 | 0.717 enrichment R |
| B4 | 2.02 enrichment R |
| B5 | 0.889 enrichment R |
| B6 | 1.14 enrichment R |
| B7 | 0.483 enrichment R |
| B8 | 1.51 enrichment R |
| B9 | 0.665 enrichment R |
| B10 | 0.823 enrichment R |
| B11 | 1.85 enrichment R |
| B12 | 1.08 enrichment R |
| B13 | 0.573 enrichment R |
| B14 | 0.525 enrichment R |
